This note sets out measurements from PubChem BioAssay AID1240 (Sanford-Burnham Center for Chemical Genomics, 2008).

Among all 50,000 compounds or so, about 800 (1.6%) showed an effect of 50% or more. The list shows a part of the results.

This test deals with Bcl-2-like protein 10 (Homo sapiens) (UniProt Q9HD36). Nature of the test: TR3 peptide-Bcl-B binding displacers, biochemical primary FP assay, phenotype converters (AID 1240).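 Note: 0% = Bcl-B with tracer peptide and DMSO and 100% = tracer peptide lacking Bcl-B.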 The following applies: GST-Bcl-B / FITC-TR3 peptide fluorescence polarization; stronger effect = higher value; compound at 3.75 mg/L.
Sequence of UniProt Q9HD36 (Q9HD36 whole entry, looked up): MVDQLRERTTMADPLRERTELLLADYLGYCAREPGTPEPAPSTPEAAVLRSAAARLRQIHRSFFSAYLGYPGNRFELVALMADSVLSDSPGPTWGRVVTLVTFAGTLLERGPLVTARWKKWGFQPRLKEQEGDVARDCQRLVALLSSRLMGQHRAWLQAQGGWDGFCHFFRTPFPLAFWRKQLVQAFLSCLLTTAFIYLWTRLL
Turning to `CC1=C(C)CC2C(=O)N(c3cccc4ccccc34)C(=O)C2C1` (stereo not given), the displacement amounted to 3%.
`COc1ccc(C)cc1NC(=O)COc1ccc(Cl)cc1Cl`: the displacement was -2.8%.
In the case of `CCOC(=O)C1=C(C)N=C2SCC(=O)N2C1c1ccc(Br)cc1` (stereo not given) it was -10.8%; in that of `COc1ccc(C(=O)Nc2c(C)ccc3nsnc23)cc1OC`, 1.8%.
In the case of `O=C(N/N=C/c1cccnc1)c1sc2ccccc2c1Cl` it was 4.5%; in that of `Cc1ccc(/C=C2\SC(=O)N(CCC(=O)Nc3ccccc3)C2=O)cc1`, 3.8%.
Turning to `Nc1nonc1-c1nc2ccccc2n1Cc1ccccc1Cl`, the displacement stood at 9.9%.
As to `Cc1cccc(Nc2cc(=O)[nH]c(=O)[nH]2)c1`, the displacement is 8.6%.
Turning to `Cc1cc(C)cc(NC(=O)C(=O)NCc2ccco2)c1`, the displacement turned out to be 11.7%.
For `CC1(C)CC(=O)C2=C(C1)N(Cc1ccccc1)C1=C(C(=O)CC(C)(C)C1)C2c1cccs1` the value was -11.1%; for `C=CCc1ccccc1OCCn1cc(/C=C2/SC(=S)NC2=O)c2ccccc21`, 5.8%.
For `CCOc1ccc(NC2=C(Cl)C(=O)N(c3ccc(C)cc3C)C2=O)cc1` the value was 2.1%.
In the case of `CC1CCOC(c2cccc([N+](=O)[O-])c2)O1` (stereo not given) it was 4.1%; in that of `Cc1cccc(NC(=O)C2CN(S(=O)(=O)c3ccccc3)CCN2S(=O)(=O)c2ccccc2)c1` (stereo not given), 0.8%.
For the compound `Cc1ccc(S(=O)(=O)N2CCN(C(=O)c3ccccc3)C2)cc1[N+](=O)[O-]`, the displacement turned out to be 5.8%.
As to `CC(C)C(=O)NC(=O)NCc1cccc([N+](=O)[O-])c1`, the displacement was found to be 9.7%.
With `CC1(C)CC(C)(c2ccc([N+](=O)[O-])cc2)c2cc([N+](=O)[O-])ccc21` (stereo not given), the displacement came out at 3.9%.
For the compound `O=C(O)c1cc(NC(=O)c2ccc3c(c2)C(=O)N(N2C(=O)c4ccccc4C2=O)C3=O)cc(C(=O)O)c1`, the displacement was -0.9%.
Regarding `COc1ccc(NC(=O)C(c2ccccc2)c2ccccc2)c([N+](=O)[O-])c1`, the displacement stood at 14.6%.
`CSc1ccc(/C=C/C(=O)c2cccc(N)c2)cc1`: the displacement is -6.9%.
`CC(=O)OC12CC3CC(C1)C(=O)C(C3)C2`: the displacement was -13.3%.
Turning to `FC(F)(F)c1ccc(/C=N/N2CCN(Cc3cccc4ccccc34)CC2)cc1`, the displacement was 16.9%.
With `Cc1cccc(C)c1-n1c(C)n[nH]c1=O`, the displacement worked out at 11.2%.
`CC(C)(C)c1cc(C(F)(F)F)c2c(=O)n(-c3ccccc3)[nH]c2n1`: the displacement was 7.6%.
For `COc1cccc(C(=O)N2CCN(c3ccccn3)CC2)c1` the value was -10.3%; for `Cc1ccc(OCC(=O)NCc2ccco2)c(C)c1`, -2.9%.
Consider `O=C(Oc1cc(-c2ccccc2)c2oc(=O)sc2c1)c1ccc([N+](=O)[O-])cc1`, for which the displacement came out at 6.4%.
As to `CN(CCN(C)/N=C/c1ccc(O)cc1O)/N=C/c1ccc(O)cc1O`, the displacement was -4.2%.
For `N#Cc1nc(-c2ccc([N+](=O)[O-])cc2)oc1NCc1ccccc1` the value was 11.4%; for `c1cc(CSc2nc3ccccc3o2)nc(CSc2nc3ccccc3o2)c1`, -15.1%.
As to `C(=NN1CCN(c2ccccn2)CC1)c1cccc2ccccc12`, the displacement is -7.3%.
In the case of `CCN(CC)CCOc1c(C)cc(C)cc1Cl`, the displacement was -0.6%.
In the case of `NC(=O)NC(c1ccccc1)c1ccc(I)cc1` (stereo not given) it was 2.7%.
For `CC(=O)N(/C=C/c1cc[n+](CCCS(=O)(=O)[O-])c2ccccc12)c1ccccc1` the value was -7.9%; for `Cc1cc(C(=O)O)c(-c2ccccc2)o1`, -8.4%.
`CCCOc1cccc(C(=O)Nc2cccc(NC(=O)c3ccco3)c2)c1`: the displacement is 11%.
In the case of `Cc1ccc(NC(=O)C2CC=CCC2C(=O)O)c(Br)c1` (stereo not given) it was 10.9%.
Take `CCCCc1cc(=O)oc2cc(OC(C)=O)ccc12`: the displacement was -7.7%.
Take `OCc1ccc(-c2ccc(Cl)cc2Cl)o1`: the displacement was -1.9%.
With `COc1ccc2c(c1OC)C(=O)N(c1cccc(/C=C/C(=O)O)c1)C2`, the displacement worked out at 9.4%.
In the case of `Cc1cc(C)c(C2=C(C#N)C(N)=C(C#N)C3=CCCCCC32)c(C)c1` (stereo not given) it was 13.4%; in that of `O=C(NCCNc1ccc(Cl)cc1[N+](=O)[O-])c1ccccc1Cl`, 9.6%.
As for `NS(=O)(=O)c1ccc(NC(=O)CSc2nnnn2-c2ccccc2)cc1`, the displacement is 0%.
On to `COc1cc(/C=C2\SC(=Nc3ccc(F)cc3)NC2=O)cc(OC)c1OC`, for which the displacement was -17%.
As to `CCOc1ccc(N(CC(=O)N2CCOCC2)S(=O)(=O)c2ccc(Br)cc2)cc1`, the displacement was determined as 0.5%.
In the case of `O=C1c2ccccc2C(=O)c2c1cc(NC1CCCCC1)c1nsnc21` it was 15.8%.
`CC(C)(C)NC(=O)C1(C)CC2c3ccccc3C1c1ccccc12` (stereo not given): the displacement worked out at 7.8%.
As to `O=C(CCN1CCOCC1)NC12CC3CC(CC(C3)C1)C2`, the displacement was -7.7%.
Consider `C=CCN1C(=O)/C(=C\c2ccc(OC(=O)c3cccc(Br)c3)cc2)SC1=S`, for which the displacement is 13.7%.
Take `CCOc1ccc(C2CC(=O)NC(SCc3ccccc3)=C2C#N)cc1OC` (stereo not given): the displacement is -11.9%.
Consider `CC1=CC(C)(C)N(C(=O)c2ccc(NS(C)(=O)=O)cc2)c2ccc(C)cc21`, for which the displacement is 0.7%.
In the case of `CCN1CCN(CC(O)COc2ccccc2C(C)(C)C)CC1` (stereo not given) it was -9.6%.
In the case of `CC(NC(=O)C(=O)Nc1ccccc1F)c1ccccc1` (stereo not given), the displacement is 0.3%.
Consider `CC(NC(=O)C12CC3CC(CC(C3)C1)C2)C(=O)N1CCCC1` (stereo not given), for which the displacement is -7.2%.
Regarding `CCSc1nnc(NC(=O)CCCOc2ccc(Cl)cc2Cl)s1`, the displacement came to 23.4%.
With `CC(=O)C1=C(O)C(=O)N(CCN2CCNCC2)C1c1ccccc1` (stereo not given), the displacement was -8%.
For `COC(=O)CCC(=O)NNc1ccc([N+](=O)[O-])cc1` the value was 0.3%; for `Cc1cc(C(=O)Nc2cccc3ccccc23)c(-c2ccccc2)o1`, 10.4%.
Take `CCc1ccccc1N1C(=O)NC(=O)/C(=C\c2ccc(I)o2)C1=O`: the displacement was found to be 8.5%.
For `O=C1N=C(N2CCCCCC2)S/C1=C\c1cccc(O)c1` the value was -16.2%.
On to `C/C(=N/Nc1nc(-c2ccccc2)cs1)C(C)(C)C`, for which the displacement was -33.2%.
On to `CC(C(=O)Nc1ccccc1Br)N1C(=O)c2ccccc2C1=O` (stereo not given), for which the displacement was -7.2%.
Turning to `CCCOc1ccc(N2C(=O)CC(N3CCC(C(N)=O)(N4CCCCC4)CC3)C2=O)cc1` (stereo not given), the displacement was -9.1%.
`CCCOc1ccc(C(=O)Nc2ccc(-c3nc4ccccc4o3)c(O)c2)cc1`: the displacement is 15.1%.
As for `O=C(Nc1ccc(Cc2ccncc2)cc1)c1ccc(-c2cccc([N+](=O)[O-])c2)o1`, the displacement was -4.7%.
As to `COc1ccc(/C=N/N2CCN(Cc3cccc4ccccc34)CC2)cc1Br`, the displacement came out at 6.7%.
`COc1ccc(OCC(=O)Oc2ccc3c(c2)C(C)=CC(C)(C)N3)cc1`: the displacement stood at 11.4%.
For `CCOC(=O)C1=C(C)N=c2s/c(=C\c3ccc(C)o3)c(=O)n2C1c1cccc(OC)c1` (stereo not given), the displacement was determined as 73.3%.
With `CCOc1cc(/C=C2/SC(=O)NC2=O)ccc1OCc1ccc(Cl)cc1`, the displacement is -0.8%.
Take `CC1(C)CC(=NNC(=O)c2ccc(Br)o2)CC(C)(C)N1`: the displacement was -5.8%.
